# Results reported in PubChem BioAssay AID602310 (National Center for Advancing Translational Sciences (NCATS), 2012).
# Screen size: about 410,000 compounds; about 310 (0.076%) were called active. This list was built around the results that the source calls inconclusive (neither active nor inactive); the mix of calls is not that of the screen. Calls follow the shape of the dose curve; as a rule, active = well fitted curve in the direction sought with a large enough effect; inconclusive = small, poorly fitted or top-dose-only effect; inactive = flat fitted curve, though single readings scatter. Where the call is inconclusive, the potency comes from a doubtful curve fit. A structure can be active in one record and inactive in another.
# Target: DNA dC->dU-editing enzyme APOBEC-3G (Homo sapiens) (UniProt Q9HC16)
# Sequence of UniProt Q9HC16 (Q9HC16 whole entry, looked up): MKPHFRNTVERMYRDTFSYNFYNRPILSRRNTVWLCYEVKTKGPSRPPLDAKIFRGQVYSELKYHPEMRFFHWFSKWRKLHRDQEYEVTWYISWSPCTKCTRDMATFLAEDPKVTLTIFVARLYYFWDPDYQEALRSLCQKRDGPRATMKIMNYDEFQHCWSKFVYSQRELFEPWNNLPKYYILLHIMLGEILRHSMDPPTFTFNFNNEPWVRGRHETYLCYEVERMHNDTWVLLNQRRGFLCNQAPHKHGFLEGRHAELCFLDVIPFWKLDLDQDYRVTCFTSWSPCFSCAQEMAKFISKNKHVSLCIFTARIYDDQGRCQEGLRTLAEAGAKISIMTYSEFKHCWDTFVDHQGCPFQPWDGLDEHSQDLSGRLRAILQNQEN
# Experiment: qHTS for Inhibitors of Vif-A3G Interactions: qHTS; also: nearly all actives have a fitted effect of over 60% in size;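 as to activity, negative = active: hits raise eYFP signal because A3G escapes Vif-driven loss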
# Conditions: HeLa A3G-eYFP + Vif (tagged APOBEC3G with the HIV-1 protein that degrades it), YFP fluorescence, overnight; series mostly up to 46.1 µM; activity, negative = active: at the top concentration
# How it was run: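 Read-out is eYFP fluorescence (Ex 488/Em 500-530) from Vif-expressing HeLa A3G-eYFP cells; more signal means A3G escaped Vif-mediated degradation. Cells plated overnight, compound pinned in, incubated overnight at 37 deg C.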
# % is scaled to controls: 0 for no effect and ±100 for the full control effect; potency is read from the fitted curve at half-maximal effect; tags tell the direction and shape of the fitted curve.
SMILES,"activity, negative = active",Potency
CCc1ccc(N2C(=O)N(CC(=O)C(C)(C)C)c3ccccc3S2(=O)=O)cc1,inactive: -1.05%,
Cn1c(N)c(C(=O)COC(=O)C2CCCC2)c(=O)n(C)c1=O,inactive: 4.13%,
CS(=O)(=O)c1ccc(-c2cnc3c(NC=O)cc(-c4ccsc4)cn23)cc1,,"inconclusive: 20 µM [inhibitor, single point]"
CC1=C(SCc2ccccc2)C(=O)c2ccccc2C1=O,,"inconclusive: 17.8 µM [inhibitor, single point]"
Cc1ccc(Nc2nc(-c3cccnc3)nc3ccccc23)cc1,,"inconclusive: 2.82 µM [inhibitor, full curve]"
COc1cccc(-c2nnc3sc(CN4CCCCC4)cn23)c1,,"inconclusive: 1.26 µM [inhibitor, full curve]"
COc1cccc(C(=O)Nc2ncc3c(n2)CC(C)(C)CC3=O)c1,,"inconclusive: 25.1 µM [inhibitor, single point]"
N#C/C(=C/c1ccc(O)c([N+](=O)[O-])c1)C(=O)Nc1ccccc1,,"inconclusive: 2.82 µM [inhibitor, partial curve, poor fit]"
COc1cc(OC)c(OC)cc1CN1CCCC(C(=O)N2CCCC2)C1 (stereo not drawn),inactive: 2.24%,
COc1cc(OC)cc(C(=O)N2CCN(c3ccccc3F)CC2)c1,,"inconclusive: 35.5 µM [inhibitor, single point]"
CC1CCc2onc(C(=O)NCc3ccco3)c2C1 (stereo not drawn),,"inconclusive: 35.5 µM [inhibitor, single point]"
CCOc1ccc(/C=C/c2nc(C#N)c(NCCCOC)o2)cc1,,"inconclusive: 2 µM [inhibitor, full curve, poor fit]"
Cc1cc(C)c(NC(=O)OCCN2CCOCC2)c(C)c1,inactive: -0.17%,
CCOC(=O)C1=C(Cc2ccc(F)cc2)C(=O)c2ccccc2C1=O,,"inconclusive: 25.1 µM [inhibitor, single point]"
CCOC(=O)c1sc(N/N=C/c2cc(Br)c(O)c(OC)c2)nc1C,,"inconclusive: 12.6 µM [inhibitor, single point]"
C=CCN1C=C2C(=O)C(C)(OC(=O)c3cnc4ccccc4n3)C(=O)C=C2C=C1/C=C/COC (stereo not drawn),,"inconclusive: 14.1 µM [inhibitor, single point]"
CCOC(=O)C1(Cc2cccc(OC)c2)CCCN(C(=O)CNC(C)=O)C1 (stereo not drawn),inactive: 0.0539%,
COc1cc(OC)c(NC(=O)N2CC=C(c3c[nH]c4ccccc34)CC2)cc1Cl,,"inconclusive: 20 µM [inhibitor, single point]"
O=C(/C=C/c1ccc(O)cc1)c1ccccc1,inactive: -12.7%,
Cc1[nH]c2ccccc2c1C(=O)C(=O)N1CC=C(c2ccccc2)CC1,,"inconclusive: 10 µM [inhibitor, partial curve]"
CC1CCN(C(=O)C(C)Sc2nc(-c3ccccc3)cc(C(F)(F)F)n2)CC1 (stereo not drawn),,active: 20 µM
CCC1Oc2ccc(C)cc2N(CC(=O)N(Cc2ccc(C)o2)C2CCCC2)C1=O (stereo not drawn),inactive: -7.43%,
COc1ccc(CC(=O)N/N=C/c2c(C)n(C)c3ccccc23)cc1OC,,"inconclusive: 3.98 µM [inhibitor, full curve]"

SMILES,"activity, negative = active",Potency
COc1ccc(OC)c(Nc2cc3ccccc3c(=O)[nH]2)c1,,"inconclusive: 3.98 µM [inhibitor, full curve]"
CSc1ccc(C(=O)C2CCCN(C(=O)c3cccnc3SC)C2)cc1 (stereo not drawn),inactive: -0.0489%,
COc1ccccc1NC(=O)c1cc2ccccc2o1,inactive: -4%,
CCc1nc(NCc2ccccn2)c2oc3ccccc3c2n1,inactive: -3.75%,
Clc1ccc(-c2nnc(-c3ccco3)nc2N2CCCCC2)cc1,inactive: 0.302%,
O=C1CSC(=S)N1Cc1cccnc1,,"inconclusive: 4.47 µM [inhibitor, single point]"
O=C(NCc1cccc(F)c1)c1cccc2c1C(=O)c1ccc(N3CCCC3)cc1S2(=O)=O,,"inconclusive: 15.8 µM [inhibitor, partial curve, poor fit]"
Cc1ccc(NC(=O)c2ccc([N+](=O)[O-])o2)cc1S(=O)(=O)N1CCOCC1,,"inconclusive: 22.4 µM [inhibitor, single point]"
CC[C@@H]1C(c2cccc(Cl)c2)=NN(c2ccc(Br)cc2)[C@H]1C(=O)N1CCOC1=O,,"inconclusive: 22.4 µM [inhibitor, single point]"
O=C(NC(c1ccc(-c2ccccc2)cc1)c1cnccn1)C1CCN(Cc2ccc(Oc3ccccc3)cc2)CC1 (stereo not drawn),inactive: -9.48%,
COC(=O)c1[nH]c2c(c1C)C(=O)CC(c1ccccc1)C2 (stereo not drawn),,"inconclusive: 0.891 µM [inhibitor, full curve, poor fit]"
CCN1CCc2c(sc(NC(=O)c3ccc(S(=O)(=O)N4CCCCCC4)cc3)c2C(=O)NC)C1,,"inconclusive: 35.5 µM [inhibitor, single point]"
CCOc1ccc(-c2cn(-c3ccccc3OC)c(=S)[nH]2)cc1,,"inconclusive: 22.4 µM [inhibitor, single point]"
Cc1ccc(SCc2nc(-c3ccc(C(=O)NCC(C)c4ccccc4)cc3)oc2C)cc1 (stereo not drawn),inactive: 2.89%,
Cc1ccc(Sc2ccc(S(=O)(=O)Nc3ccc(C(=O)O)cc3)cc2)cc1C,,"inconclusive: 11.2 µM [inhibitor, partial curve]"
CN(C)c1ccc(-c2nn3c(-c4ccccc4Cl)nnc3s2)cc1,,"inconclusive: 0.562 µM [inhibitor, full curve, poor fit]"
COc1ccc(CCNC(=O)c2coc(=O)c(Br)c2)cc1,,"inconclusive: 28.2 µM [inhibitor, single point]"
O=c1cc(-c2ccccc2[N+](=O)[O-])oc2ccccc12,,"inconclusive: 11.2 µM [inhibitor, partial curve, poor fit]"
COc1cccc(C2C=C(c3ccc(Br)s3)Nc3ncnn32)c1OC (stereo not drawn),inactive: -1.15%,
Cc1ccc(-n2nc3c(N4CCC(C(=O)NCc5cccc(F)c5)CC4)nnc(C)c3c2C)cc1,,"inconclusive: 17.8 µM [inhibitor, single point]"
COc1cc(-c2ccc3c(=O)c4ccccc4n(C)c3c2)cc(OC)c1OC,,"inconclusive: 22.4 µM [inhibitor, single point]"
O=C(N/N=C/c1ccsc1)c1cc(-c2cccs2)nc2ccccc12,,"inconclusive: 8.91 µM [inhibitor, partial curve]"
CCSc1ccc2c(c1)N(CCCN1CCN(C)CC1)c1ccccc1S2,inactive: -2%,

SMILES,"activity, negative = active",Potency
COc1cccc(/C=C(/C(=O)OCC(N)=O)c2ccccc2)c1,inactive: -0.867%,
Oc1[nH]c2ccccc2c1N=Nc1ccc(F)cc1,,"inconclusive: 35.5 µM [inhibitor, single point]"
COc1cc(OC)cc(C(=O)NCc2ccc(-n3cccc3)cc2)c1,,"inconclusive: 7.08 µM [inhibitor, partial curve, poor fit]"
CC(C)C[C@@H](CNCC(=O)[C@H](Cc1c[nH]c2ccccc12)NC(=O)c1[nH]cnc1C(=O)N[C@H](CN)CC(C)C)NC(=O)c1nc[nH]c1C(=O)N[C@@H](CC(=O)O)C(=O)O,inactive: -3.15%,
O=C(Nc1sc2c(c1C(=O)O)CCCCC2)c1cccs1,inactive: -4.78%,
COc1ccc(C(=O)Cn2c(C(=O)/C=C/c3ccccc3)nc3ccccc32)cc1,,"inconclusive: 22.4 µM [inhibitor, single point]"
O=C(c1[nH]c(C(F)(F)F)nc1-c1ccccc1)N1CCN(c2ncccn2)CC1,,"inconclusive: 11.2 µM [inhibitor, single point]"
CCOC(=O)C(=Cc1cc(=O)c(OC)co1)C(=O)OCC,,"inconclusive: 10 µM [inhibitor, partial curve, poor fit]"
CCN(c1ccccc1)S(=O)(=O)c1ccc(C(=O)NNC(=O)c2ccccc2F)cc1,,"inconclusive: 3.98 µM [inhibitor, partial curve, poor fit]"
COC(=O)C1=C(C)N(c2cc(C)cc(C)c2)/C(=C/c2ccc(O)cc2)C1=O,,"inconclusive: 25.1 µM [inhibitor, single point]"
COC(=O)CC1C(=O)NC2CCCCC2N1C(=O)CCl (stereo not drawn),inactive: 3.83%,
CCOC(=O)c1[nH]c(C)c(C(=O)Nc2ccc(C)c(F)c2)c1C,,"inconclusive: 7.08 µM [inhibitor, partial curve, poor fit]"
Cc1ccc(C)c(N2CCN(C(=O)CCc3c(C)nn(-c4ccc(N5CCCC5)nn4)c3C)CC2)c1,inactive: 1.36%,
COc1ccccc1C=CC(=O)C=Cc1ccccc1OC,,"inconclusive: 3.16 µM [inhibitor, full curve, poor fit]"
CCc1ccccc1NC(=O)c1nc2nc(C)cc(C(F)F)n2n1,inactive: -2.66%,
Cn1c(-c2cccc(Br)c2)cnc1NCc1cccc(F)c1,,"inconclusive: 7.08 µM [inhibitor, full curve]"
N#Cc1c(C(F)(F)F)cc(-c2cccs2)nc1SCC(=O)Nc1cccc(Br)c1,,"inconclusive: 2.82 µM [inhibitor, partial curve, poor fit]"
CSc1nc(C)cc(OCC(=O)N/N=C/c2ccccc2O)n1,,"inconclusive: 7.08 µM [inhibitor, partial curve, poor fit]"
O=C(C=Cc1ccccc1)c1cccs1,,"inconclusive: 22.4 µM [inhibitor, single point]"
O=[N+]([O-])c1ccc2c(c1)C(N1CCN(CCO)CC1)Cc1ccc(F)cc1S2 (stereo not drawn),,"inconclusive: 35.5 µM [inhibitor, partial curve, poor fit]"
CCOC(=O)c1c(NC(=S)N2CCOCC2)sc2c1CCN(C(=O)OCC)C2,,"inconclusive: 35.5 µM [inhibitor, single point]"
O=C1Nc2cc(C(=O)NCCN3CCCCCC3)ccc2S/C1=C\c1ccccc1,,"inconclusive: 28.2 µM [inhibitor, single point]"
